Data published in paper PMC3694108.
These are yes or no findings as the source states them, for the method shown. For some of these results: In cells and extracts the contact can be indirect. Some binding calls cover weakened binding; strength is not graded here.

The chains behind the UniProt entries cited, without tags or fusion partners. Where a name states a change or a piece, a line headed by the entry shows the natural chain unless it says otherwise. Residues count along the entry.
UniProt P63172: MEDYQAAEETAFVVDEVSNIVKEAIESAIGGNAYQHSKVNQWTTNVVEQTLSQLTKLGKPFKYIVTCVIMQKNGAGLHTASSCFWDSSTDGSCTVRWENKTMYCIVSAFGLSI
GST-DYNLT1 N-terminus (aa 1–61): residues 1-61 of P63172
GST-DYNLT1 C-terminus (aa 62–113): residues 62-113 of P63172
UniProt P31269: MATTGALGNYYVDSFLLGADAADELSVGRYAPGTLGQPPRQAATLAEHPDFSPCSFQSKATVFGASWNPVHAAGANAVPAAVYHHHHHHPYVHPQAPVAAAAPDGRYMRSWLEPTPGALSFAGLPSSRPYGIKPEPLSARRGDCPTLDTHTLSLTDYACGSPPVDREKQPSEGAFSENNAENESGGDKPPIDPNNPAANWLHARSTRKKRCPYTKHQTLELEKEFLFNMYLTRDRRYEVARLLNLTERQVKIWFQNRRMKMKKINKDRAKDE
UniProt P37198: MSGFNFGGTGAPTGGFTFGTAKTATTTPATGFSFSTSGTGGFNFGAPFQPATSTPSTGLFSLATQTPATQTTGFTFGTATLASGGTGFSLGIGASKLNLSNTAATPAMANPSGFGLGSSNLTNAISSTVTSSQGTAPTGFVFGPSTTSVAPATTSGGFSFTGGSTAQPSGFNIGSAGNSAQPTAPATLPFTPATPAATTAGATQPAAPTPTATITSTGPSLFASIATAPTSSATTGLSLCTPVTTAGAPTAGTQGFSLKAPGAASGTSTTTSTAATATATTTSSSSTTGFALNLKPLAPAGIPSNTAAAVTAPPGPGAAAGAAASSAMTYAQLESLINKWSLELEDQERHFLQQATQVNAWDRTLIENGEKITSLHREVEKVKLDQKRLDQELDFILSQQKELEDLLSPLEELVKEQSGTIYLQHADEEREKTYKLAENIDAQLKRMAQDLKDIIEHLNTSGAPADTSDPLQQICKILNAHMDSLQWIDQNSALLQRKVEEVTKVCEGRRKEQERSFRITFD
UniProt P52948, residues 1-880: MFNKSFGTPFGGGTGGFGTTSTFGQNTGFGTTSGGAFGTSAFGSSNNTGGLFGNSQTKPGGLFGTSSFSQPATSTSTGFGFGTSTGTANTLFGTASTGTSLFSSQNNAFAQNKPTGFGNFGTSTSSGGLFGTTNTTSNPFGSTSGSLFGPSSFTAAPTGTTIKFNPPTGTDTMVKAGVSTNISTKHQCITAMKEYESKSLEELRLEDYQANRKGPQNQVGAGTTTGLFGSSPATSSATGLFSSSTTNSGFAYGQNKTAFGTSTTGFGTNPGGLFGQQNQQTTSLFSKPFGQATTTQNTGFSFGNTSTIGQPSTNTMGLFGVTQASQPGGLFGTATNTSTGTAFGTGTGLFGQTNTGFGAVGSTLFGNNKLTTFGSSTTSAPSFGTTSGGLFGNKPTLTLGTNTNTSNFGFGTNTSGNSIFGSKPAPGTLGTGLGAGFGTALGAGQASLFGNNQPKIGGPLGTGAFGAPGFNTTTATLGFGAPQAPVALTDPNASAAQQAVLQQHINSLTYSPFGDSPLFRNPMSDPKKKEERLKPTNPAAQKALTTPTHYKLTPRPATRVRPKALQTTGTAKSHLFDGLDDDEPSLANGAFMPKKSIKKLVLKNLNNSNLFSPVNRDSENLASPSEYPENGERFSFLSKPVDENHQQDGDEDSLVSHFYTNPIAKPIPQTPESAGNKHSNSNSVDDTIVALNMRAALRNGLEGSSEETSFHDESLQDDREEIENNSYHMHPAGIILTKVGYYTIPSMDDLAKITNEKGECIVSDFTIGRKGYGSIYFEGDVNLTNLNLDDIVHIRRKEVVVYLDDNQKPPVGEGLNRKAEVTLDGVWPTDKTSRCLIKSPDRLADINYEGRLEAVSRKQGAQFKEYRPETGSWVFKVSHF
UniProt P49790: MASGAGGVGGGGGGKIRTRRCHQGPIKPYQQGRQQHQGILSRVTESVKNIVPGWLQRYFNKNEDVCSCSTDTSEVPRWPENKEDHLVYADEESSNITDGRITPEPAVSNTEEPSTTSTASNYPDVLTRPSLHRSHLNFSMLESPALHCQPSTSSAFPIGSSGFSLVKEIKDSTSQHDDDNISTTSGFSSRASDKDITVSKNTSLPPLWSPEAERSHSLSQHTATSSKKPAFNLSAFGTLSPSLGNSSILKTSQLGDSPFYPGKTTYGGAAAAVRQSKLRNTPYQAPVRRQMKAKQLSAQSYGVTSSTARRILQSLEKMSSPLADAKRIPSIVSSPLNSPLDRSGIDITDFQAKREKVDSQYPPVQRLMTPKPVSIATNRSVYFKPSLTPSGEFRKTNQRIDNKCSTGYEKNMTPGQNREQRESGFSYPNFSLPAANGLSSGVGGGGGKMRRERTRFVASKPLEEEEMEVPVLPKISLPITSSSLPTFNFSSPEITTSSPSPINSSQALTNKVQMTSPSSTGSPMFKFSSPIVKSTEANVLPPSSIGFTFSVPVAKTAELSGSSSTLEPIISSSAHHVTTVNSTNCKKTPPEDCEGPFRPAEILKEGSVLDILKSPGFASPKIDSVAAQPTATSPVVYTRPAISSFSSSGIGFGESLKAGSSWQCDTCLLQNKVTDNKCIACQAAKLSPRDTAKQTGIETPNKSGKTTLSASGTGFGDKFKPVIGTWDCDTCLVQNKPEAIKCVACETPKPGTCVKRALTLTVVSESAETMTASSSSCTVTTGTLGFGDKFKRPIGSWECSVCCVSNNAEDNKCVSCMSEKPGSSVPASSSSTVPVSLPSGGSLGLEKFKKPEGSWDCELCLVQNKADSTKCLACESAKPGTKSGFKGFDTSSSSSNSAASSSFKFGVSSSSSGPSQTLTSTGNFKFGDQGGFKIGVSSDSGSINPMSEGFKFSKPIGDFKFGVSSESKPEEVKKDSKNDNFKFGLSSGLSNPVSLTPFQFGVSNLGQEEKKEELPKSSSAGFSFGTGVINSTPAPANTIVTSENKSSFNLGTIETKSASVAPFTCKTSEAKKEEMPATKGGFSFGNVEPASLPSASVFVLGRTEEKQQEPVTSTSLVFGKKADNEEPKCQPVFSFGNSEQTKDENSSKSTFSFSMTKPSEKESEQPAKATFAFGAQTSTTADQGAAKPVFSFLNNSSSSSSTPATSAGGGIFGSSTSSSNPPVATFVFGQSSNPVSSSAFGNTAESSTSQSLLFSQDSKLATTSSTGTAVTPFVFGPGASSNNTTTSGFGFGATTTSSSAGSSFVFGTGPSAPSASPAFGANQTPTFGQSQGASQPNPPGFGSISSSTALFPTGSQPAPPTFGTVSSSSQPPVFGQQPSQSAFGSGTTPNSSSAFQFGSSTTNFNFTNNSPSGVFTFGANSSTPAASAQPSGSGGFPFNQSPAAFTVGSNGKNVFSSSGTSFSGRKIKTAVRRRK

Columns and labels:
[1] = target: endogenous DYNLT1 (human (endogenous in K562)) (UniProt P63172); test: co-IP; untransfected K562 cell lysate immunoprecipitated with rabbit anti-DYNLT1 antibody or rabbit IgG, Protein G beads; immunoblot with MAb414 (NUP153, NUP62) or anti-NUP98 antibody
[2] = target: GST-DYNLT1 C-terminus (aa 62–113) (human) (UniProt P63172); test: pull-down; GST-DYNLT1, GST-DYNLT1 N- or C-terminus (or GST control) immobilized on beads, incubated 1 h at 4°C with 35S-labelled in vitro translated protein in TB-T (20 mM HEPES-KOH pH 7.4, 110 mM potassium acetate, 2 mM MgCl2, 0.1% Tween 20); SDS-PAGE and autoradiography of bound and unbound fractions; only the target purified
[3] = target: GST-DYNLT1 N-terminus (aa 1–61) (human) (UniProt P63172); test: as above
GST-DYNLT1 (human) = GST-DYNLT1 (human) (UniProt P63172); test: as above
GST-HOXA9 = GST-HOXA9 (UniProt P31269); test: pull-down; GST, GST-NUP98-HOXA9 or GST-HOXA9 immobilized on beads, incubated with purified recombinant DYNLT1 in TB-T (20 mM HEPES-KOH pH 7.4, 110 mM potassium acetate, 2 mM MgCl2, 0.1% Tween 20), 1 h at 4°C; SDS-PAGE, Coomassie blue; both purified

| binding [1] | binding [2] | binding [3] | binding (GST-DYNLT1 (human)) | Substance | other results |
| --- | --- | --- | --- | --- | --- |
| binds | – | – | – | endogenous NUP62 (from UniProt P37198 1-522) | – |
| binds | – | – | – | endogenous NUP98 (from UniProt P52948 1-880) | – |
| binds | – | – | – | endogenous NUP153 (from UniProt P49790 1-1475) | – |
| – | binds weakly | no binding | binds | in vitro translated full length NUP62 (from UniProt P37198 1-522) | – |
| – | binds weakly | no binding | binds | in vitro translated full length NUP153 (from UniProt P49790 1-1475) | – |
| – | – | – | – | purified recombinant DYNLT1 (Dynein Light Chain 1) (from UniProt P63172 1-113) | binding (GST-HOXA9): no binding |
